We go through one substance from FireProtDB (doi:10.1021/bi010427y).

The Tm is the temperature at the midpoint of the melting transition.

For the data set the following is noted: Escherichia coli (strain K12), pH 7, CD, sodium phosphate 50 mM, reversible: Unknown.

For “Thioredoxin 1 wild type (sequence left out)”, where the note is “25 °C, GdnHCl”, the denaturant m value was 3.4 kcal/mol/M, the “denaturant midpoint (higher = more stable)” value came out at 2.6 M and the unfolding free energy stood at 9 kcal/mol. The Tm (Thermal) was found to be 87 °C.
